# In the supplement of paper PMC7826260:
# Some of the results follow. One pool of 16,384 single-stranded DNAs met each Rep nickase domain in vitro at 3 µM enzyme and 37 °C for 1 h; the strands have 90 letters, of which the middle is given. Uncut reads are compared with the no-enzyme pool on a log2 scale; the lower, the more was cut; hits are not called. Shares of all reads are compared, so uncut sequences can rise above 0 when many others are cut.
# What was measured:
# Assay in all cases: uncleaved DNA left, log2 of reads against the no-enzyme library (log2 ratio); higher = less cleavage (more negative = more Rep cleavage of the k-mer); sequences stand for … in CTCGTCCG…ACCGGAGA
# [1] = system: T1, Rep nickase domain of Muscovy duck circovirus
# T1 sequence (residues 1-111, tag not shown): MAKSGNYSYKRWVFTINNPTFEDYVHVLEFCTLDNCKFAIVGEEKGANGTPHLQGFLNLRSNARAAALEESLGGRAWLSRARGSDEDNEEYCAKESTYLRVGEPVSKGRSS
# Procedure: (§1)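 A pool of 90-nt single-stranded DNAs with seven random bases just before the constant AC of the nick site (name = the seven bases) was cut by 3 µM recombinant His6-SUMO-tagged Rep nickase domain (300 nM DNA, 50 mM HEPES pH 8.0, 50 mM NaCl, 1 mM MnCl2, 1 h, 37 °C, three replicates). Uncut DNA was amplified and sequenced.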
# [2] = system: T2, Rep nickase domain of banana bunchy top virus
# T2 sequence (residues 1-94, tag not shown): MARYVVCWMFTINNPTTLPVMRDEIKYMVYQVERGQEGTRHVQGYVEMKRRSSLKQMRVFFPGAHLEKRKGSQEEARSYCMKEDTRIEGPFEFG
# Procedure: as §1
# [3] = system: T3, Rep nickase domain of cabbage leaf curl virus
# T3 sequence (residues 1-116, tag not shown): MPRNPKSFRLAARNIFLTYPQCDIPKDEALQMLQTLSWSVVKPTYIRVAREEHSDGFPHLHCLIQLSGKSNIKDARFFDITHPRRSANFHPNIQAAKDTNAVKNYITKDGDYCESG
# Procedure: as §1
# [4] = system: T4, Rep nickase domain of chickpea chlorotic dwarf virus
# T4 sequence (residues 1-124, tag not shown): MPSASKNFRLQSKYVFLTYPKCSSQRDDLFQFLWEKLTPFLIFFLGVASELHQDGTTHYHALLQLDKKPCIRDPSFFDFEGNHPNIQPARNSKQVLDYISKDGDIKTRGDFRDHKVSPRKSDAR
# Procedure: as §1
# [5] = system: T5, Rep nickase domain of faba bean necrotic yellows virus
# T5 sequence (residues 1-98, tag not shown): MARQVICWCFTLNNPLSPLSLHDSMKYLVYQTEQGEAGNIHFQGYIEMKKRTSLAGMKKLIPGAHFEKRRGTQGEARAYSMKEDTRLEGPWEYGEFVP
# Procedure: as §1
# [6] = system: T6, Rep nickase domain of maize striate mosaic virus
# T6 sequence (residues 1-117, tag not shown): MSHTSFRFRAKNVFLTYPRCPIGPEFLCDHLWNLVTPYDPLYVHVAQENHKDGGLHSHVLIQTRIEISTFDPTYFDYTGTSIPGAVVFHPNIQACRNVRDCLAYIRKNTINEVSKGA
# Procedure: as §1
# [7] = system: T7, Rep nickase domain of porcine circovirus 2
# T7 sequence (residues 2-116, tag not shown): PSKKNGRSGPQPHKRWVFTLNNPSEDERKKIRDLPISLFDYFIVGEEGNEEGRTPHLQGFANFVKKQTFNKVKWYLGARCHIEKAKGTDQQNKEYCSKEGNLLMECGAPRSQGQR
# Procedure: as §1
# [8] = system: T8, Rep nickase domain of tomato yellow leaf curl virus
# T8 sequence (residues 1-136, tag not shown): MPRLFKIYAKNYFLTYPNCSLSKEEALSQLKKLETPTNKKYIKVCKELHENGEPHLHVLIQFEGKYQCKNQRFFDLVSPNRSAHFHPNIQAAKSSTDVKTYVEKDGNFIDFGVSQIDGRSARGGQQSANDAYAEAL
# Procedure: as §1
# [9] = system: T9, Rep nickase domain of wheat dwarf virus
# T9 sequence (residues 1-137, tag not shown): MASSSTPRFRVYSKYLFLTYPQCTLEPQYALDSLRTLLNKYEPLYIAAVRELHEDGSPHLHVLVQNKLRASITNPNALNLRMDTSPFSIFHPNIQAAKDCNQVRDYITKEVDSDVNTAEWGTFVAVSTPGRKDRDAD
# Procedure: as §1
Sequence,uncleaved DNA left (log2) [1],uncleaved DNA left (log2) [2],uncleaved DNA left (log2) [3],uncleaved DNA left (log2) [4],uncleaved DNA left (log2) [5],uncleaved DNA left (log2) [6],uncleaved DNA left (log2) [7],uncleaved DNA left (log2) [8],uncleaved DNA left (log2) [9]
GCCCTCA,-0.136,0.0514,0.223,0.0731,0.0426,0.515,0.0335,0.0558,-0.0173
GCATAGT,-2.13,-0.0936,-0.336,-1.02,-0.0624,-0.79,-2.53,0.0147,-0.234
ATCAGCT,-0.059,-0.0238,-0.515,-1.46,-0.0371,-1.04,0.125,-0.0555,-0.0714
CGGGGGC,-0.00461,-0.0512,0.831,1.25,0.0152,2.02,0.262,-0.0253,0.0184
ACCTAAA,0.0715,-0.0875,-0.127,-0.119,0.105,-0.93,0.0105,0.0736,0.0431
AACTACA,-0.187,0.0272,-0.381,-2.93,0.146,-0.639,-2.34,0.173,0.0785
TTGCCGT,-0.00273,-0.102,-0.814,-0.616,0.0444,-1.06,-0.175,-0.021,-0.0404
TGACCGG,0.078,0.0626,0.301,0.93,0.116,0.689,0.171,0.0362,0.0536
TAGCCTA,-0.158,-0.0783,-0.168,-2.39,0.0287,-0.251,-1.43,0.0391,0.0495
CAGCGCG,-0.113,-0.096,-0.894,-0.228,-0.133,-1.02,-0.00324,-0.0742,-0.187
TCCGCCC,-0.251,-0.116,0.0075,-0.389,-0.253,-0.354,-0.204,-0.253,-0.184
GCATTCG,-0.09,-0.0916,-0.663,0.539,-0.0132,-0.517,0.0605,-0.0386,-0.12
GCGTCCA,-0.019,0.132,0.118,-0.0604,-0.0695,0.257,-0.174,-0.00973,0.0588
GCAAGTT,0.17,0.0836,-0.141,-0.975,0.0755,0.0587,-0.0657,0.00489,0.0545
ATGAGTT,0.0221,-0.0537,-0.0119,-1.35,-0.0532,-0.00492,-0.714,-0.041,-0.023
TCCTCGC,-0.0582,0.0171,-0.357,-0.634,-0.0467,-1.04,0.0375,-0.0398,-0.211
GAGTCGT,-0.00784,-0.143,-0.0227,0.0843,-0.0271,-0.53,-2.74,0.123,0.102
GGGCGCG,0.053,-0.000648,-0.464,0.0526,-0.0872,-0.165,0.0938,-0.236,-0.128
CATGGTA,-0.0475,-0.129,-0.0998,-0.187,0.0203,-0.0822,-0.0733,-0.0881,-0.071

Sequence,uncleaved DNA left (log2) [1],uncleaved DNA left (log2) [2],uncleaved DNA left (log2) [3],uncleaved DNA left (log2) [4],uncleaved DNA left (log2) [5],uncleaved DNA left (log2) [6],uncleaved DNA left (log2) [7],uncleaved DNA left (log2) [8],uncleaved DNA left (log2) [9]
ATACCCA,0.00885,0.0129,0.0625,-0.58,0.0882,0.0651,-0.431,0.0593,0.106
CCTCGGA,0.0413,-0.0232,0.124,0.446,0.00245,0.21,0.092,-0.0236,-0.0479
GCTGGTC,-0.017,0.0722,0.193,0.627,0.0857,0.893,-0.0168,0.193,-0.0159
TCTCTCG,0.0367,-0.0936,-0.836,-0.506,0.127,-0.879,0.0867,-0.114,-0.118
CGGCGTG,-0.0537,-0.171,-0.194,0.234,-0.0182,0.426,-0.0627,-0.181,-0.118
CGTACCC,-0.138,0.03,0.107,-0.585,-0.0691,-0.0492,-0.702,-0.126,-0.0212
CATCTAA,0.0667,0.0714,-0.0584,-0.495,-0.0295,-0.495,0.022,0.0406,0.0617
ACCCTGG,0.16,0.0786,-0.53,-0.443,0.0898,-0.971,0.268,0.105,0.0363
CCCGAGG,-0.122,-0.302,0.3,1.16,-0.245,1.19,-0.19,-0.26,-0.31
AGTTAAG,0.0603,-0.0988,-0.791,-0.473,0.023,-1.27,0.141,-0.00414,-0.135
TGGCATT,0.188,0.111,0.816,1.86,0.0233,2.22,0.193,0.0707,0.113
AAGCCCG,-0.0617,-0.0707,-0.598,-0.567,-0.0783,-1.07,0.185,-0.0361,-0.0988
GGAGGCG,0.109,0.0954,-0.49,0.725,0.301,-0.12,0.218,0.163,0.0942
GCAGTAT,0.122,0.0275,0.213,0.141,-0.1,0.345,0.0979,0.182,0.159
GGCTTGT,-0.0391,0.0126,0.196,0.769,-0.0141,1.65,-0.118,0.0437,0.0323
TGTGGTA,0.184,0.00746,0.282,0.611,0.0801,1.36,0.0222,0.0284,0.12
TGACCAC,0.154,0.0949,0.403,0.376,0.0361,0.724,0.0236,0.0836,0.172
AGTAAAC,0.0295,0.0523,0.146,0.0526,0.0673,-0.338,0.0729,0.059,0.0834
ATACGGT,0.177,0.00602,0.105,0.686,0.0297,1.32,0.129,-0.0772,0.0205

Sequence,uncleaved DNA left (log2) [1],uncleaved DNA left (log2) [2],uncleaved DNA left (log2) [3],uncleaved DNA left (log2) [4],uncleaved DNA left (log2) [5],uncleaved DNA left (log2) [6],uncleaved DNA left (log2) [7],uncleaved DNA left (log2) [8],uncleaved DNA left (log2) [9]
ACGACTC,-0.00596,0.0324,-0.0292,0.461,0.0279,0.701,0.0652,0.0488,0.134
AGAATCG,0.0756,0.0411,-0.645,-0.641,0.103,-1.08,0.236,-0.0349,-0.0434
TCGAAAG,0.0238,-0.0212,-0.358,-0.369,0.0367,-1.13,0.153,0.00926,-0.088
AGGGTAC,0.0717,-0.0163,0.128,0.796,-0.0116,0.191,0.176,-0.0102,0.0269
GGTGCGG,0.0852,-0.011,0.179,0.559,-0.00447,0.605,0.0807,-0.0999,-0.018
CAAGCGA,0.0847,0.134,-0.672,-0.239,0.00834,-0.965,0.194,0.0974,0.0565
GGTTCCC,-0.237,-0.0217,0.267,0.86,-0.138,1.52,-1.74,0.0801,-0.00703
TGAGCGA,-0.0651,0.0839,-0.362,-0.401,-0.0123,-0.929,0.0297,0.022,-0.0127
CTGGCGC,0.033,0.0837,-0.663,-0.391,0.00201,-0.595,0.259,0.0918,-0.262
CACTTTG,-0.117,-0.0659,-0.704,-0.753,0.008,-1.15,-0.142,-0.197,-0.156
GACGTTA,0.176,0.0909,0.364,0.224,0.172,1.13,0.094,0.00677,0.0648
CAGATCA,-0.0579,0.0613,0.119,-1.39,-0.128,-0.00291,-0.863,-0.0384,0.12
CGGCCGG,0.182,0.0923,0.417,0.744,0.0527,0.606,0.25,0.173,0.0803
GTCTGGA,0.118,0.0971,0.339,0.867,0.0241,1.51,0.0736,0.171,0.131
AAATTGA,0.111,0.078,-0.437,-0.685,0.0934,-1.19,0.0655,0.0638,0.0672
CTACATA,-0.0197,0.119,-0.238,-1.94,0.00514,-0.49,-0.0843,-0.0523,-0.0341
TTCGCGT,0.012,-0.0412,-0.736,-0.406,-0.0621,-0.993,0.104,0.0626,-0.0474
TAATGTG,0.0435,-0.0662,-1.08,-1.69,0.0739,-1.15,0.146,0.0764,-0.0469
